Reference: publication PMC9637993
Like-named read-outs stand apart in the source and are kept apart here. Results are given in words; binding and its absence hold for the method and conditions named. Binding seen in cells or lysates may run through a third protein. Some binding calls cover weakened binding; strength is not graded here.

Amino acid sequences for entries named in this document (tags omitted). A change or cut given only in a name is not applied to a line headed by its entry. Chains listed by the source or under a name are the forms on record and can include a tag or linker. Residues count along the entry.
UniProt Q86VZ6: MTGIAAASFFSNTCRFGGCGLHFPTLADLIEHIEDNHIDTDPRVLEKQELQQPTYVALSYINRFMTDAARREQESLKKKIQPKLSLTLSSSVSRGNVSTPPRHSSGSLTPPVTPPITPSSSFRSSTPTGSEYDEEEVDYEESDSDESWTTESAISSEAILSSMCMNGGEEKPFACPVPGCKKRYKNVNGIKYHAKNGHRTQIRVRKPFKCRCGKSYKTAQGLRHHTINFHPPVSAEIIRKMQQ
UniProt Q15022: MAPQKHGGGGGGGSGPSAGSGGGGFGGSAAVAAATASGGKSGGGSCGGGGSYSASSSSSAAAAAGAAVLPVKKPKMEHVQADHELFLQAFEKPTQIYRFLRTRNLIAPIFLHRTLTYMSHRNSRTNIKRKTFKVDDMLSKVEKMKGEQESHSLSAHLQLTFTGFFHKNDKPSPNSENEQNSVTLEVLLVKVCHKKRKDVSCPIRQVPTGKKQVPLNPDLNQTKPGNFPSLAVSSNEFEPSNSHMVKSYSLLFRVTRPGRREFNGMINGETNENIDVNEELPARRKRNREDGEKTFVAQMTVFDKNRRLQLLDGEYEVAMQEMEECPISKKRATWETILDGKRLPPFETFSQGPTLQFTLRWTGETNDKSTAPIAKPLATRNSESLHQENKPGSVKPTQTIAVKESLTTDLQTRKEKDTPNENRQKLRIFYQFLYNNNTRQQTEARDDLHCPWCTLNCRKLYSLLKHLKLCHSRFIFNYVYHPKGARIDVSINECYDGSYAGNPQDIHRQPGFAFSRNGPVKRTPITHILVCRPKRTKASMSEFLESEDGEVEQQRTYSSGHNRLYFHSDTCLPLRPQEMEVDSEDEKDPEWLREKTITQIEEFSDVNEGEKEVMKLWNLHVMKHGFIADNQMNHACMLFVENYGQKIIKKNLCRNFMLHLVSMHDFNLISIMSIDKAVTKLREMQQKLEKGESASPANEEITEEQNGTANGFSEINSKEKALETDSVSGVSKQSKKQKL
FLAG-tagged SUZ12Δ93: residues 94-739 of Q15022
UniProt Q02395: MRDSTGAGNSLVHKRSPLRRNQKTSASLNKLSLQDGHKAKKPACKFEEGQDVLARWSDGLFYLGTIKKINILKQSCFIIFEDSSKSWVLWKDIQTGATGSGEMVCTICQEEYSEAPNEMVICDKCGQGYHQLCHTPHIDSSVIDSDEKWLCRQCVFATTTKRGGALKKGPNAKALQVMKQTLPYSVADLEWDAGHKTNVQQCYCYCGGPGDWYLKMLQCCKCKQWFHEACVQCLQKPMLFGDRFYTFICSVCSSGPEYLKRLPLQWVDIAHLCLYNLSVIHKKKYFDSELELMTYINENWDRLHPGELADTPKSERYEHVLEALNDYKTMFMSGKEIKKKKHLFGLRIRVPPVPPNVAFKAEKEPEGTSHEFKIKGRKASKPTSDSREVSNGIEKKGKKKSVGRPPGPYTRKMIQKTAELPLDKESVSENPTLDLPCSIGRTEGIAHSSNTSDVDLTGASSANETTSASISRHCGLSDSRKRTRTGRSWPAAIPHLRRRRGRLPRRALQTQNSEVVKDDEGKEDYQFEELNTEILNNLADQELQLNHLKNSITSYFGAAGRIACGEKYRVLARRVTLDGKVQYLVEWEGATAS
UniProt Q61188: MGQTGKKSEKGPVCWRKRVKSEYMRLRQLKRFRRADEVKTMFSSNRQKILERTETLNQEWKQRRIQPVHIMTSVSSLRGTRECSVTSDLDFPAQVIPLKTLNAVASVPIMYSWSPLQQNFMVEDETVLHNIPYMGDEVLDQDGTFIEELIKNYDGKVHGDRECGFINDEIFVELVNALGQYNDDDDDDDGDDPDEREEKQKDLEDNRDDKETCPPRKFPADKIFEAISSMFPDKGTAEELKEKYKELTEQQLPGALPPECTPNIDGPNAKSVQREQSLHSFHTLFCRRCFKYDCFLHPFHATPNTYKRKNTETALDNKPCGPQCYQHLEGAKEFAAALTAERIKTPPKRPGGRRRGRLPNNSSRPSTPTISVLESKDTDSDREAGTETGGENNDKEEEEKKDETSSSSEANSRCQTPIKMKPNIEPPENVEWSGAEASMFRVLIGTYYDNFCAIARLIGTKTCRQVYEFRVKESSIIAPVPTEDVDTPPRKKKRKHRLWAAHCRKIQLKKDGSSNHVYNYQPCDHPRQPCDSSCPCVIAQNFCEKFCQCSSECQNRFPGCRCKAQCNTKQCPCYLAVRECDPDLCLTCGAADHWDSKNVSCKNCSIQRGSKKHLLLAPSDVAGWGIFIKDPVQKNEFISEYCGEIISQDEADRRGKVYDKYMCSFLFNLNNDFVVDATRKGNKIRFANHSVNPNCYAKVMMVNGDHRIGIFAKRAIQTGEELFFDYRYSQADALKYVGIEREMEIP

B1: EPOP (protein, UniProt Q7TNS8 1-369)
chain: METLCPPPRLAVPASPRGSPCSPTPLKPRRGTPEFSPLCLRALAFCALAKPRPSSLGLGPGELAPRTPVLLGPPASPCTGGWAADGLKHLGGQAGRPSDVSSPAREDADVAVCPGGGEEEEGGGGFPHFGAGSCAPPGRCPAPLRPQDSPTNPAWSPPRPARGLDAASSPPLEPGSPPPSPPAGLSPEPAPSEQPVPASEAPGGGDPAPTAPEAPALSPSTADAAPDPPRDLRQEHFNRLIRRSKLWCYAKGFALDTPSLRRGPERPAAKARGAAKKRRRPAPPPPSVQPRRPVPTLPTSSTFSLLDCFPCPPALVVEENGDLGPASSLRLQGDAKPPPAHPLWKWQMGGPAVPEPPGLKSWWVNLEEL
B2: AEBP2 (protein, UniProt Q9Z248 1-504)
chain: MAAALADMADLEELSRLSPLSPGSPGPAARGRAEPPEEEEEEDDEEAEAEAVAALLLNGGAGGGAGGGEAETMSEPSPESASQAGGDEDEDEEDDEDEGSSSGGAEEESSAESLVGSSSGGCSGDETRSLSPGAASSSSGDGDGKEGLEEPKGPRGGPGGPGSSGGGSSSSSVVSSGGDEGYGTGGGGSSATSGGRRGSLEMSSDGEPLSRMDSEDSISSTLMDIDSTISSGRSTPAMMNGQGSTTASSKHIAYNCCWDQCQACFNSSPDLADHIRSIHVDGQRGGVFVCLWKGCKVYNTPSTSQSWLQRHMLTHSGDKPFKCVVGGCNASFASQGGLARHVPTHFSQQNSSKVSSQPKAKEESPSKAGMNKRRKLKNKRRRSLPRPHDFFDAQTLDAIRHRAICFNLSAHIESLGKGHSVVFHSTVIAKRKEESGKIKLLLHWMPEDILPDVWVNESERHQLKTKVVHLSKLPKDTALLLDPNIYRTMPQKRLKRFDILNFPR
B3: JARID2 (protein, UniProt Q62315 1-1234)
chain: MSKERPKRNIIQKKYDDSDGIPWSEERVVRKVLYLSLKEFKNAQKRQHGEGLAGSLKAVNGLLGNAQAKALGPASEQSENEKDDASQVSSTSNDVSSSDFEEGPSRKRPRLQAQRKFAQSQPNSPSTTPVKIVEPLLPPPATQISDLSKRKPKTEDFLTFLCLRGSPALPNSMVYFGSSQDEEDVEEEDDETEDVKATTNNASSSCQSTPRKGKTHKHVHNGHVFNGSSRSAREKEPAHKHRSKEATPGKEKHSEPRADSRREQASGAQPTAASAAASSAKGLAANHQPPPSHRSAQDLRKQVSKVNGVTRMSSLGAGTNSAKKIREVRPSPSKTVKYTATVTKGTVTYTKAKRELVKETKPNHHKPSSAVNHTISGKTESSNAKTRKQVLSLGGASKSTGPAASGLKASSRLNPKSCTKEVGGRQLREGLRNSKRRLEEAQQVDKPQSPPKKMKGVAGNAEAPGKKASAASGEKSLLNGHVKKEVPERSLERNRPKRAAAGKNMLGKQAHGKTEGTPCENRSTSQPESSHKPHDPQGKPEKGSGKSGWAAMDEIPVLRPSAKEFHDPLIYIESVRAQVEKYGMCRVIPPPDWRPECKLNDEMRFVTQIQHIHKLGRRWGPNVQRLACIKKHLRSQGITMDELPLIGGCELDLACFFRLINEMGGMQQVTDLKKWNKLADMLRIPKTAQDRLAKLQEAYCQYLLSYDSLSPEEHRRLEKEVLMEKEILEKRKGPLEGHTESDHHKFHSLPRFEPKNGLVHGVTPRNGFRSKLKEVGRAPLKTGRRRLFAQEKEVVKEEEEDKGVLNDFHKCIYKGRSVSLTTFYRTARNIMNMCFSKEPAPAEIEQEYWRLVEEKDCHVAVHCGKVDTNTHGSGFPVGKSEPFSRHGWNLTVLPNNTGSILRHLGAVPGVTIPWLNIGMVFSTSCWSRDQNHLPYIDYLHTGADCIWYCIPAEEENKLEDVVHTLLQGNGTPGLQMLESNVMISPEVLCKKGIKVHRTVQQSGQFVVCFPGSFVSKVCCGYNVSETVHFATTQWTSMGFETAKEMKRRHIAKPFSMEKLLYQIAQAEAKKENGPTLSTISALLDELRDTELRQRRLLFEAGLHSSARYGSHDGNSTVADGKKKPRKWLQLETSERRCQICQHLCYLSMVVQENENVVFCLECALRHVEKQKSCRGLKLMYRYDEEQIISLVNQICGKVSGKHGGIENCLNKPTPKRGPRKRATVDVPPSRLPSS

Columns and labels:
Test in all cases: co-IP; SUZ12 IPs from lysates of Suz12GT/GT ESCs stably expressing FLAG-tagged constructs; lysis in 300 mM NaCl, 0.5% NP-40, diluted 1:1 with no salt buffer; benzonase; Protein G Dynabeads; immunoblot
[1] = molecular target: FLAG-tagged JAZF1-SUZ12 (UniProt Q86VZ6)
[2] = molecular target: FLAG-tagged SUZ12Δ93 (human) (UniProt Q15022)
[3] = molecular target: FLAG-tagged JAZF1-SUZ12 (UniProt Q86VZ6); remark: listed apart in the source
[4] = molecular target: FLAG-tagged SUZ12 (human) (UniProt Q15022)
[5] = molecular target: FLAG-tagged SUZ12Δ93 (human) (UniProt Q15022); remark: listed apart in the source

| binding [1] | binding [2] | binding [3] | binding [4] | binding [5] | Molecule |
| --- | --- | --- | --- | --- | --- |
| binds | binds |  |  |  | PCL2 (from UniProt Q02395 1-593) |
| binds | binds |  |  |  | EZH2 (from UniProt Q61188 1-746) |
|  |  | no binding | binds | no binding | B1 |
|  |  | binds |  | binds | B2 |
|  |  | no binding | binds | no binding | B3 |
